Measurements reported in PMC4336329 (PLoS ONE, 2015).
In all, about 310,000 compounds went through this assay and about 2,200 (0.71%) showed an effect of 50% or more. Effects have a minus sign here. The list shows a part of the results.

target: human ether-à-go-go-related gene (hERG) potassium channel (human, UniProt Q12809); test: primary screen, population patch clamp on CHO cells stably expressing hERG
Sequence (Q12809 whole entry, looked up): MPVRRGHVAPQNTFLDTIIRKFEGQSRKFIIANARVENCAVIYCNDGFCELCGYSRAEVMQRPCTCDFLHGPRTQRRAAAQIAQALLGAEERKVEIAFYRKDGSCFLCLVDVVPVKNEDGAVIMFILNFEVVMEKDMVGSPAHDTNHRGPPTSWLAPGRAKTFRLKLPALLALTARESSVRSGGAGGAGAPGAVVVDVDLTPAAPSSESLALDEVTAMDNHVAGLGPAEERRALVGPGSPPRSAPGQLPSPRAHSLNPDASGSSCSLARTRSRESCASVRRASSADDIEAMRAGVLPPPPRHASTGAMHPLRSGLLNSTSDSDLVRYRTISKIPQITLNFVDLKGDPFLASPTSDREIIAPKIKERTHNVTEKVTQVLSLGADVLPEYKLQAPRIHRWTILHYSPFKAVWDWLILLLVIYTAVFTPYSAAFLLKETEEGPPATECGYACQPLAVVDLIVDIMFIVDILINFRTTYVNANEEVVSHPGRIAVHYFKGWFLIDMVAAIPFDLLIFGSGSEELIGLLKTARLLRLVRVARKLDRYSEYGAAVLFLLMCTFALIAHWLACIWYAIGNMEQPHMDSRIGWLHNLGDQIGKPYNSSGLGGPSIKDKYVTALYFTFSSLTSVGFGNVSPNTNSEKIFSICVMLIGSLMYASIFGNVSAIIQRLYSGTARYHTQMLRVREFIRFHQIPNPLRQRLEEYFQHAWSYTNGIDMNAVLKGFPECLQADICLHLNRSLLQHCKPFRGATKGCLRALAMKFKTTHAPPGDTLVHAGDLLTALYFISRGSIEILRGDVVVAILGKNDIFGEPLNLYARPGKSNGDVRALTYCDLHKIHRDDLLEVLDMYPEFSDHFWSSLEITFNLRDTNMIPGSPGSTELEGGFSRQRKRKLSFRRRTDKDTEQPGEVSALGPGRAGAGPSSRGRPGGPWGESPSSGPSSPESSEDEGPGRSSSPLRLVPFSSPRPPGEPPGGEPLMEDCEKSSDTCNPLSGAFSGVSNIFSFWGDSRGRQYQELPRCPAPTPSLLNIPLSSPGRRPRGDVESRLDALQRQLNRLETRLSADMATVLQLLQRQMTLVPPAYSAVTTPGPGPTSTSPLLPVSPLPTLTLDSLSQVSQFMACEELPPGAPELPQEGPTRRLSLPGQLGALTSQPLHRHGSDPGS

Compound | hERG current change (%, negative = inhibition) at 1uM [%]
O=C(COc1ccc(Cl)cc1Br)N1CCN(c2ccccc2)CC1 | 4.15
COc1cccc(CNC(=O)c2cccnc2Sc2ccc(C)cc2C)c1 | 6.77
CCOc1ccc(OCc2ccc(C(=O)Nc3cccnc3)o2)cc1 | -5.38
CCc1ccc(C(C)NC(=O)c2ccc(F)cc2)cc1 (stereo not drawn) | 5.79
CCc1ccc(C(C(=O)NCc2ccc(F)cc2)N(C(=O)c2csnn2)C2CC2)cc1 (stereo not drawn) | 4.8
COc1cccc2cc(C(C)N(CCCN3CCOCC3)C(=S)Nc3c(C)cccc3C)oc12 (stereo not drawn) | 1.44
CSCC[C@H](NC(=O)C1CCN(C(=O)[C@H](Cc2ccccc2)NS(=O)(=O)c2ccc(C)cc2)CC1)C(=O)O | 8.25
COc1cccc(C(=O)Nc2ccc3[nH]ncc3c2)c1OC | 5.29
O=C1CCC(C(=O)N2CCCC2)CN1CCc1cccc(F)c1 (stereo not drawn) | 7.17
CCOC(=O)C1=C(C)NC(=S)NC1c1cc(C)sc1C (stereo not drawn) | 14
O=C(O)COc1cccc2nsnc12 | 6.88
CC1(c2ccc3c(c2)OCCO3)NC(=O)N(CC(=O)Nc2ccccc2)C1=O (stereo not drawn) | 8.36
CC(=O)c1cccc(N(CC(=O)NCC2CCCO2)C(=O)CCC(=O)Nc2cc(C)on2)c1 (stereo not drawn) | 9.35
CCOC(=O)Cn1c2ccc(C)cc2c2nc(C)sc21 | 7.65
CCCCn1c(N)c(N(CC(C)C)C(=O)CSCC(=O)Nc2cccc(C)c2)c(=O)[nH]c1=O | 2.34
COc1ccc(C(=O)/C(=C\c2ccco2)N2C=CC=CC2=C(C#N)C#N)cc1 | -13
c1ccn(-c2ccc(-c3ccn[nH]3)cc2)c1 | 13.6
COc1cc(OC)c2c(N)c(C#N)c(C(F)(F)C(F)(F)F)nc2c1 | 3.29
CCN(CC(=O)Nc1c(F)cccc1F)C(=O)/C=C/c1ccc(C)cc1 | 9.41
O=C(N/C(=C/c1ccco1)C(=O)N1CCOCC1)c1ccccc1Br | 11.5
O=C(CCn1c(=O)c2cccn2c2ccc(F)cc21)NCCc1ccccc1 | 18.4
COc1ccc(C2CC(=O)N3CN(c4ccccc4F)CSC3=C2C#N)cc1OC (stereo not drawn) | 18.6
CC(C)Sc1nc2c(c(=O)[nH]c(=O)n2C)n1CCc1ccccc1 | -2.44
CCOC(=O)c1nnc(-c2cccs2)nc1Oc1ccccc1C(=O)OC | 14.4
